# Whole data set: some 4,000 sequences, median “arbitrary fluorescence units” near 830, cut for the highest 2% near 6,500. This part holds few or none of the hits.
# Molecular target: RUNX1 (UniProt Q01196)
# Experiment: RUNX1 binding intensity (PBM fluorescence), RUNX1 alone (arbitrary fluorescence units); higher = stronger binding
# Settings: RUNX1 concentration 2 nM; ETS1 concentration 0 nM
# Protocol: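 gcPBM on 36-bp genomic-derived probes (partner site mutated) containing one RUNX1 site and no ETS1 site. Recombinant human RUNX1 (2 nM) was incubated alone or with ETS1 (25 nM) and detected by anti-RUNX1 antibody fluorescence. Values are medians over 4 replicate spots (not normalised). The probes sit in constant array flanks that are not printed.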
# 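Note: Full-length recombinant human RUNX1 bound to double-stranded DNA microarray spots, detected with an Alexa488-labelled secondary antibody after the anti-RUNX1 primary, read as scanned spot fluorescence.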
# Chain of UniProt Q01196 (Q01196 whole entry): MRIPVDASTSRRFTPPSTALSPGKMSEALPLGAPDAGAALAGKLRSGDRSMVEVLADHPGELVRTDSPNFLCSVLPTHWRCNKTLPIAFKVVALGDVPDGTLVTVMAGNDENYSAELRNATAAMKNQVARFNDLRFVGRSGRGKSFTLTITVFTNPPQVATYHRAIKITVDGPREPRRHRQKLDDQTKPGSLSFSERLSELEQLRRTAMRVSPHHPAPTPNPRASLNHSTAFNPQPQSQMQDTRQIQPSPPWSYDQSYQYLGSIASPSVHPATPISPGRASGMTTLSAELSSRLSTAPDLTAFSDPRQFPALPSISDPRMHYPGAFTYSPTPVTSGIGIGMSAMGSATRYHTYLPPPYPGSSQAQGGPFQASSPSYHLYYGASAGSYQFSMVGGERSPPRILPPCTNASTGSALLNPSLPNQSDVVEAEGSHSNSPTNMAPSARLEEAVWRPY
row,Sequence,RUNX1 binding intensity
1,CTTTCTGGTTACCTTCCTTTTTGGTTTTGGTTTCAT,1410
2,GGACCGGGAGTTAAGGCGTTCGCGGCGTGTGGTAAG,678
3,GCCTCTGTGGGCTGATGAAGGACAGACAGAAAGCCA,800
4,CGTCCAGCCGCAAGGGAGAGCAGATTCCTCCAGTGC,848
5,GAGGAGGTGGTTGCTATAACCCCAAGGGGGAATCGC,736
6,CATGCCTACCCGCGGGCCCTCTCAGCTGCCGTACAC,1160
7,AGCTCCATGAAGAGGGCCTGAAAACCAAACGGGGGA,842
8,GGCTGATGGGGAGAAGAGAGTGGCTGTGGTCTCTGG,746
9,ATAGACGACCACAGCCTGTGCACCCTCAGGCAGTAA,1010
10,CACCTCAGCTTCATGTGTAGCTGGGACCACAGGCAT,759
11,GCTGCCAGGTGGCCACAGCGCACAGTAAACGAGACT,764
12,ACAGCAAGTGAGGCTGTGAGGAGTTTGTGGTGTGTA,829
13,CCATTCTTACGGTGGAGATGGCTGCGGCCGTGGCGG,815
14,GTTGGGTGGGCAAGTGGATGGTGGTTTTGGCAGAGG,1280
15,TGCAAGAAGAAGCTGGGGTTTGTGGTTCATGTTTTG,794
16,AGCTGTGGCTTCAGTGTTTCTGATCTCCTCTTGTTG,874
17,GAGACACCGCATGGGTAGAGAAACCTCCGTAATGTT,751
18,AAGGTCGCTGCGGGGATGGGGGCCGGGAATCTCCTC,878
19,CTTATCTTCTTCATGTGAGCTGTGTGTGGGTGGCTC,839
20,GGCGCCCGCAGCCTCCAGGCATCGCGCCCGGCTGGA,816
21,GGAACGGAGGCGCAAGGGGCCCTGCGGCGACGACGT,575
22,GTACGCTGGGCCGCAGTCCCTGCCGGGAATTGTAGT,672
23,CCCCTTGCCGTTCTCCGAAAGTGCGCGGGTTGGAGC,868
24,GGCACTGGCTTTCAGGGGCCTCTGTGGGCTGGACAG,653
25,AATATGTGGGCTGAGGCGATGGTTGCCTGGGGTGCT,776
26,CCCCGCCTCCTCCGCTTCTGTGGTCTGATCTGCCTG,1340
27,CCAGCCCAGGCAACAAGGAACCCCAAAGCCACAGGA,822

row,Sequence,RUNX1 binding intensity
1,GTGTCCTGTGGTCTCCTCTGCGCCACCTCCCTGCCT,1280
2,GCCGTCAGCTGGATCCGTGCGGTCCGCGAGGACCCG,836
3,TGCTTCATCTGTGGTGAGGGCTGCTTGCTGCTCTGT,756
4,CCTGGAGCCTGTGGGCTTGGCTGCTTCAGCTAGCAG,690
5,AGCAGGCTATGCCGGGTTTGTGGCTGCTTGGCTCCA,697
6,TGACGGCTGCACGGGCGCAGCGGCGGCCCGCAGGGG,736
7,CACCCTGGCCCCACAGCCCCAGTAAAACATTCCTCA,1280
8,GCCCGCCCCGGGAGTGCAAACTGTGTGGTCTGGCAG,703
9,GAGACATGTGGTTACATATTTAACGGCATCATGCCA,1120
10,AGATGGGCATGCTGTGAGCCTGTGGTTCTCAGCATT,727
11,CTGCACTTTCGGTCAGGCGGTCGGGCTGCGGGGCCC,734
12,CATCAAGTATCTCCTCACGCAAGCAACCGCATCCAT,1230
13,TTCGCGTGGTCACTTTCGCGTCCATTCGGGGCTTCT,761
14,CCTTGTGGGAGCTGTAGTTCTGCAGGCGCGGAGGCC,678
15,GTAGCGCTGCGGGTTTTTGCGACACCATGCGCGCCT,922
16,TATTGTGTACCTCCCCTTCATGTTGTGGTTGGCTTT,919
17,AGTTGTGGGCTCACCTGGAGGAGTTGCCTGGAGTGG,771
18,CTCCCGGGCCGCAGCCGCGCGTTGCCGGCGCGCTCC,826
19,CCCCACATACGGGGGCCGGGGCCGGGCTGTGGGCTT,755
20,GCCCCCGTAAGCTGTCGCCCCGTGCGGTGTGTGCTG,844
21,AGACCCGGCTATGCGCCGGGGACCCCCAGACCGCGC,759
22,CGGTGGCTTACGGCCCATGGCGGTGGTTGGTGACTC,746
23,GAAGTCACACCCTGTCTGTTGCGGCAGGGCACAGAG,760
24,CCCAGGGCAACCGCTTGCCTCCCGCGGAGGTGCATC,769
25,ACTTTGTCAGTGTGGTTTTCACATGCTGTCCTAGCT,1190
26,ACTAGCGTCACCGCGCCAAGGTTCGGGTCCGGGTCT,706
27,CGACTGGAACCACTCTGAGGCGCTGCCGCAGACACC,1040

row,Sequence,RUNX1 binding intensity
1,TAGACGCGGTTTTGGACTGCTATCTCCGTAAAAGTC,884
2,CAGCAACATGCCCGCAGAGAATTCTTCTGGAGGCGG,835
3,CTTTCTTGTGGGCGATGATACGTCCTACATTCCCCC,987
4,CCCGCTGCGGCCTCCACAGAGCAGCAAGCAGCCCTC,886
5,CCTTGCTGCATGATGCTCTAACCACAAGCCCAGGAG,6030
6,TCGGCTGCACGAAAGGCACGCGGTCTCCCTCTTGGC,762
7,TGAGTCATTGCCTGGGTGGGGGCCACAAGACCAGGT,708
8,AAAGAGGCAATCACATACCCGAAAACCACATGCACA,1030
9,CTGCCTGCCCCACAGCATGCAGGGACAGGCAGTGGG,633
10,CTCCCGTCCCCGCAGAGTGCAAGGCTGTGAACAAGG,842
11,GGAAAGCGCAAGAAAAAAGCAAGATGGGACCGCAAG,766
12,GCTTTTTCTTGGTGGTTGGGCAGGGAGCCTCTAGAG,999
13,GTAGAGACAGCAAATTATGTTGGTTTTCTTGCAGAA,702
14,GACTCTTCAGGCCCAGAGCTTTCGGAGTGCGGTTGC,775
15,AAGGCACCAACCACTTCGGAGGAGACGGGGGGTGGT,857
16,TCGCATATGGCTGTGGGAGGAGGAATGGAGGCCCAG,736
17,GCTCCCCTGACCACACCAGTTCCTCAGGGAGCCTCT,1020
18,CGCCTACCCCTTGCTGAGGCGGGGGCGGTTTCTCGA,1740
19,GCTGGGGGGCTCCCGCAGAGGCAGGGAACTGGCGGG,730
20,TCATAGCCGGCAGGAATGGGTTTTGTGGCTTTGTGC,847
21,AAGAGTCGCGGTTTTCCACCAGCAAGTTGTCCAGTC,2850
22,AGCCAGCTGTGGTGAAGGGAGGCAGCCTGAGAACTG,785
23,CGGTGCACCACAGCTACGGCACAGCATGTGGAGAAC,769
24,GTGCCACTGAGAGCAAGGGGGCAACCACAGTGGGAG,867
25,ACCACCCCCACAGACAAACTCACCTCCTCTCCCTAG,1500
26,GCCCCTAAACCGAATGCGGCAGCCACCGCGGACCCC,1100

# From the supplement of paper PMC10681739
